Assay results reported in PubChem BioAssay AID1347417 (National Center for Advancing Translational Sciences (NCATS), 2020).
Out of some 120,000 compounds screened, about 5,300 (4.4%) were called active. The inconclusive results got no clear call from the source; some entries with a clear call stand among them for comparison. Calls come from the whole dose curve; as a rule, active = well fitted inhibition curve with a large enough effect; inconclusive = small, poorly fitted or top-dose-only effect; inactive = no such curve, though single readings can be large or run the other way. Where the call is inconclusive, the potency comes from a doubtful curve fit.

Assay: qHTS Primary assay for Inhibitors of Plasmodium falciparum Dd2 growth in vitro; note: nearly all actives have a fitted effect of over 65% in size;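 for activity, negative = inhibition: plate controls were DMSO vehicle for no effect and reference drug for full effect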
Details: P. falciparum Dd2 growth, SYBR Green, 72 h; activity, negative = inhibition: at 28.9 µM (top of the series) unless noted; series mostly up to 28.9 µM
Procedure, shortened: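 Readout: SYBR Green fluorescence, 485 nm excitation, 535 nm emission, after ~16 h lysis at 37C. Before that, Dd2-infected red cells (2.5% hematocrit) grew 72 h with compound, 29 uM top final concentration.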
Potency is the fitted concentration of half-maximal effect; tags give direction and shape of the fitted curve.

Row | Structure (SMILES) | Potency | activity, negative = inhibition | outcome
1 | COc1ccc(Cl)cc1NC(=O)CN1C(=O)CN=C(c2ccccc2)c2cc(Cl)ccc21 | inconclusive: 11.2 µM [inhibitor, single point] |  | 
2 | CN1CCCN(C(=O)c2ccc(Cl)cc2)c2ccccc21 | inconclusive: 17.8 µM [inhibitor, single point] |  | 
3 | Cc1noc([C@@H]2CC(F)(F)CN2C(=O)c2ccc3c(c2)OCO3)n1 |  | inactive: -3.21% | 
4 | Cc1ccc(C)c(S(=O)(=O)c2nnn3c2nc(NC(C)C)c2sccc23)c1 | inconclusive: 11.2 µM [inhibitor, single point] |  | 
5 | NS(=O)(=O)c1ccc(NC(=O)CN2C(=O)COc3ccc(Cl)cc32)cc1 | active: 0.708 µM |  | 
6 | COc1ccc(Cl)cc1NC(=O)c1cn(C2CCCCC2)c(=O)c2c1c1ccccc1n2C | inconclusive: 17.8 µM [inhibitor, single point] |  | 
7 | COc1ccccc1CCNC(=O)C1CCN(c2nnc(-n3cccc3CNc3ccc(C)cc3)s2)CC1 |  | inactive: -9.54% | 
8 | CCOC(=O)N(C)Cc1cn([C@@H]2CN[C@H](C(=O)N(CC)CC)C2)nn1 |  | inactive: -8.44% | 
9 | CCOc1ccc(NC(=O)C2CCCN(c3ccc(Sc4ccc(C)cc4)nn3)C2)cc1 (stereo not given) | inconclusive: 10 µM [inhibitor, single point] |  | 
10 | O=S(=O)(NC[C@H]1C[C@@H]2CCN1C[C@@H]2CN1CCN(c2ncccn2)CC1)c1ccc(Cl)cc1 |  | inactive: -22.8% | 
11 | COc1ccc(Cl)cc1NC(=O)C1CCCN(c2ncnc3onc(C)c23)C1 (stereo not given) | inconclusive: 12.6 µM [inhibitor, partial curve, poor fit] |  | 
12 | CN1c2cc(C(=O)N3CCC(C(N)=O)CC3)ccc2C(=O)N2CCCCC21 (stereo not given) |  | inactive: 24.1% | 
13 | COc1ccccc1CC(=O)Nc1ccc2c(N3CCCCC3)ncnc2c1 | active: 14.1 µM |  | 
14 | CCOC(=O)c1oc2ccc(S(=O)(=O)n3nc(-c4cc(OC)c(OC)c(OC)c4)cc3N)cc2c1C | inconclusive: 3.16 µM [inhibitor, full curve] |  | 
15 | COCCCNC(=O)N1CCCCCCN(C)C(=O)[C@@H]2CCC[C@@H]21 |  | inactive: 39.4% | 
16 | COc1ccc(CNc2ncncc2-c2nc(-c3ccccc3)no2)cc1 |  |  | inactive
17 | Cc1c(-c2ccccc2F)[nH]c2ccc(CNC(=O)C3C=CCN3)cc12 (stereo not given) | inconclusive: 17.8 µM [inhibitor, single point] |  | 
18 | Cc1ccc(C(=O)N2CCCC(c3nn[nH]n3)C2)cn1 (stereo not given) |  | inactive: 12.9% | 
19 | CCOc1ccc(NC(=O)CSc2ccc(-c3sc(-c4ccccc4)nc3C)nn2)cc1 | inconclusive: 8.91 µM [inhibitor, single point] |  | 
20 | CN(C)C(=O)N1CCC2(CC1)CN(Cc1ccc(O)cc1)Cc1ccccc1O2 |  | inconclusive: -58.3% [inhibitor] | 
